Test results: patent US10266544B2, “Aryl substituted aminomethyl spectinomycin analogs as antibacterial agents” (ST. JUDE CHILDREN'S RESEARCH HOSPITAL, INC., priority 2013, dated 2019)
Where a name gives a salt, the structure may show the parent alone.

Molecular target: purified Mycobacterium smegmatis 70S bacterial ribosomes (Mycolicibacterium smegmatis, UniProt A0QSG6)
Test: biochemical
Experimental: Aryl substituted aminomethyl spectinomycin analogs were synthesized as described above. Ribosomal inhibition (IC50) was determined in the ribosomal inhibition assay as described above and the data are shown in Table 2. The compound number corresponds to the compound numbers used in Table 1.
3′-Methylene aryl substituted aminomethyl spectinomycin analogs were evaluated for potency as ribosomal inhibitors using purified mycobacterial ribosomes, as described previously (Salian, et al. Antimicrob Agents Chemother. 2011 56(12), 6104-6108). […] Without wishing to be bound by a particular theory, the meta position appeared to be less preferred for substitution than para position. Adding a trifluoromethoxy (10) decreased binding by 10-fold. […] Without wishing to be bound by a particular theory, introduction of a nitrogen to the ortho (16) and meta (7) position of non-substituted aryl analog 1 was favorable, decreasing IC50's to 0.4 μg/mL in each case.

Sequence of purified Mycobacterium smegmatis 70S bacterial ribosomes (A0QSG6 whole entry): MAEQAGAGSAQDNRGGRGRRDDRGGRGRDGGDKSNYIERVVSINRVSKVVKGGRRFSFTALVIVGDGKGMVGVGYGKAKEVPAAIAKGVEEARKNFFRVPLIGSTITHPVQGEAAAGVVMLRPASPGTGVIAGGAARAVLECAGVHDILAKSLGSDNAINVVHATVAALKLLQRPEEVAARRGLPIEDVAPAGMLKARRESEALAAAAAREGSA

Structure (SMILES) | IC50 (IC50) | change of ribosomal inhibitory potency on fluorination of the aryl ring | IC50 (IC50 (Sm))
CN[C@@H]1[C@H](O)[C@H](NC)[C@H]2O[C@]3(O)[C@H](O[C@@H]2[C@H]1O)O[C@H](C)C[C@@]3(O)CNCc1nccs1 [compound 19, 3′-(R)-3′-(2-thiazolylmethyl)aminomethyldihydrospectinomycin Tetrahydrobromide] | 1.17 µM | – | –
CN[C@@H]1[C@H](O)[C@H](NC)[C@H]2O[C@]3(O)[C@H](O[C@@H]2[C@H]1O)O[C@H](C)C[C@]3(O)CNCc1ccc(OC(F)(F)F)cc1 (stereo in doubt) [compound 26, 3′-(S)-3′-[(4-trifluoromethoxyl)benzylaminomethyl)]dihydrospectinomycin Trihydrochloride] | 37.5 µM | – | –
CN[C@@H]1[C@H](O)[C@H](NC)[C@H]2O[C@]3(O)[C@H](O[C@@H]2[C@H]1O)O[C@H](C)C[C@@]3(O)CNCc1cccs1 [compound 17, 3′-(R)-3′-(2-thiophenylmethylaminomethyl)dihydrospectinomycin Trihydrochloride] | 0.849 µM | – | –
CN[C@@H]1[C@H](O)[C@H](NC)[C@H]2O[C@]3(O)[C@H](O[C@@H]2[C@H]1O)O[C@H](C)C[C@@]3(O)CNCc1ccccc1 [compound 1, 3′-(R)-3′-(benzylaminomethyl)dihydrospectinomycin Trihydrochloride] | 1.92 µM | – | –
CN[C@@H]1[C@H](O)[C@H](NC)[C@H]2O[C@]3(O)[C@H](O[C@@H]2[C@H]1O)O[C@H](C)C[C@@]3(O)CNCc1ccccc1F [compound 14, 3′-(R)-3′-[(2-fluoro)benzylaminomethyl)]dihydrospectinomycin Trihydrochloride] | 1.51 µM | slight loss of potency | –
CN[C@@H]1[C@H](O)[C@H](NC)[C@H]2O[C@]3(O)[C@H](O[C@@H]2[C@H]1O)O[C@H](C)C[C@@]3(O)CNCc1cccc(F)c1 [compound 15, 3′-(R)-3′-[(3-fluoro)benzylaminomethyl)]dihydrospectinomycin Trihydrochloride] | 2.21 µM | slight loss of potency | –
CN[C@@H]1[C@H](O)[C@H](NC)[C@H]2O[C@]3(O)[C@H](O[C@@H]2[C@H]1O)O[C@H](C)C[C@@]3(O)CNCc1ccco1 [compound 8, 3′-(R)-3′-(2-furanylmethylaminomethyl)dihydrospectinomycin Trihydrochloride] | 0.902 µM | – | –
CN[C@@H]1[C@H](O)[C@H](NC)[C@H]2O[C@]3(O)[C@H](O[C@@H]2[C@H]1O)O[C@H](C)C[C@@]3(O)CNCc1cccc(C)n1 [compound 22, 3′-(A)-3′-[(6-Methyl)-2-pyridinylmethylamino)dihydrospectinomycin Tetrahydrobromide] | 0.918 µM | – | –
CCOc1ccc(CNC[C@]2(O)C[C@@H](C)O[C@H]3O[C@@H]4[C@@H](O)[C@H](NC)[C@H](O)[C@H](NC)[C@H]4O[C@]32O)cc1 [compound 4, 3′-(R)-3′-[(4-ethoxyl)benzylaminomethyl)]dihydrospectinomycin Trihydrochloride] | 1.45 µM | – | –
CN[C@@H]1[C@H](O)[C@H](NC)[C@H]2O[C@]3(O)[C@H](O[C@@H]2[C@H]1O)O[C@H](C)C[C@@]3(O)CNCCc1ccc(OC)cc1 [compound 53, 3′-(R)-3′-[(4-methoxy)phenethylaminomethyl]dihydrospectinomycin Trihydrochloride] | 1.61 µM | – | 1.61 µM
CN[C@@H]1[C@H](O)[C@H](NC)[C@H]2O[C@]3(O)[C@H](O[C@@H]2[C@H]1O)O[C@H](C)C[C@@]3(O)CNCc1ccncc1 [compound 9, 3′-(R)-3′-(4-pyridinylmethylaminomethyl)dihydrospectinomycin Tetrahydrobromide] | 1.58 µM | – | –
